The values that follow come from the supplement of paper PMC4967469.

Common to all, as to assay: Viability of human cancer cell lines after 72 h of drug (GDSC screen)
Compound in one test: NC(=O)C1CCCc2c1[nH]c1ccc(Cl)cc21 [EX-527]
Particulars: top dose 20 µM. The procedure: (§1)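 Human cancer cell lines in 384-well plates, medium with 10% serum, drug for 72 h over a 256-fold dose range (nine 2-fold or five 4-fold steps up to the top dose). Adherent lines were fixed and stained with the nucleic acid dye Syto60, suspension lines read with resazurin; signal relative to control wells, capped at 0 and 100%. One two-parameter sigmoid per drug and line, fitted in a mixed model over all curves with the slope shared within a line.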

Compound in a further test: Nc1ccc(C(=O)Nc2cccc(-c3nc(N4CCOCC4)c4oc5ncccc5c4n3)c2)cn1 [YM201636]
Particulars: top dose 5.12 µM; top dose inferred. How it is done: as §1

Compound in a further test: Cn1cnc2c(F)c(Nc3ccc(Br)cc3Cl)c(C(=O)NOCCO)cc21 [AZD6244]
To be noted: top dose 4 µM; screen: GDSC drug entry 1498; top dose inferred. How it is done:
as §1

Compound in a further test: N#CC(c1ccnc(NCCc2cccnc2)n1)c1nc2ccccc2s1 [AS601245]
To be noted: top dose 8 µM; top dose inferred. How it is done: as §1

The IC50 comes from the fitted curve, where viability falls to half of the control; where the fit passes the top or lowest dose, that dose stands as a limit. AUC is the area under the same curve over the 256-fold range up to the top dose, as a fraction; the more sensitive the line, the further below 1. For some assays here: An inferred top dose was derived from the fitted curves, not read from the paper. For some assays here: Where an entry number is given, a second screen of the drug exists; the two often differ.

As for ABC-1 (lung adenocarcinoma, adherent), the AUC with EX-527 is 0.969; with YM201636 it was 0.934; in the test with AZD6244, 0.973; with AS601245 it was 0.833. For the same cell line, the IC50 (commonly the concentration needed to halve the response being measured) with EX-527 is over 20 µM; with YM201636, over 5.12 µM; in the test with AZD6244, over 4 µM; with AS601245 it was 6.7 µM.

Consider ACHN (kidney, adherent), for which the AUC with EX-527 came out at 0.983; with YM201636, 0.883; with AZD6244, 0.72; with AS601245, 0.721. Further, the IC50 in the test with EX-527 was over 20 µM; in the test with YM201636, over 5.12 µM; with AZD6244, 1.16 µM; in the test with AS601245, 2.33 µM.

For AN3-CA (endometrium, adherent), the AUC with EX-527 was determined as 0.972; with YM201636, 0.879; in the test with AZD6244 it was 0.879; with AS601245, 0.711. The IC50 was over 20 µM with EX-527, over 5.12 µM with YM201636, over 4 µM with AZD6244 and 2.1 µM with AS601245.

With ASH-3 (thyroid, adherent), the AUC with EX-527 is 0.98; with YM201636 it was 0.988; in the test with AZD6244, 0.603; with AS601245, 0.605. Moreover, the IC50 is over 20 µM with EX-527, over 5.12 µM with YM201636, 0.479 µM in the test with AZD6244 and 0.97 µM with AS601245.

Take BCPAP (thyroid, adherent): the AUC with EX-527 was found to be 0.985; with YM201636, 0.916; in the test with AZD6244, 0.776; with AS601245 it was 0.803. The IC50 with EX-527 was over 20 µM; in the test with YM201636 it was over 5.12 µM; with AZD6244, 1.45 µM; with AS601245 it was 3.54 µM.

As for “BEN (non-small cell lung carcinoma, adherent)”, the AUC in the test with EX-527 came out at 0.98; with YM201636 it was 0.931; with AZD6244, 0.97; with AS601245 it was 0.908. Further, the IC50 with EX-527 is over 20 µM; with YM201636 it was over 5.12 µM; with AZD6244, over 4 µM; with AS601245, over 8 µM.

Turning to BFTC-905 (bladder, adherent), the AUC in the test with EX-527 was determined as 0.977; in the test with YM201636 it was 0.973; with AZD6244, 0.825; with AS601245 it was 0.787. Also, the IC50 with EX-527 is over 20 µM; in the test with YM201636 it was over 5.12 µM; with AZD6244 it was 1.97 µM; with AS601245, 2.97 µM.

For BFTC-909 (kidney, adherent), the AUC was 0.983 with EX-527, 0.949 with YM201636, 0.916 in the test with AZD6244 and 0.907 with AS601245. For the same cell line, the IC50 in the test with EX-527 was over 20 µM; with YM201636 it was over 5.12 µM; with AZD6244, over 4 µM; in the test with AS601245 it was over 8 µM.

In the case of BHT-101 (thyroid, adherent), the AUC with EX-527 stood at 0.976; with YM201636 it was 0.892; in the test with AZD6244 it was 0.455; in the test with AS601245 it was 0.839. The IC50 is over 20 µM with EX-527, over 5.12 µM in the test with YM201636, 0.188 µM with AZD6244 and 5.71 µM with AS601245.

Regarding BHY (head and neck, adherent), the AUC is 0.987 with EX-527, 0.906 with YM201636, 0.889 with AZD6244 and 0.824 with AS601245. In addition, the IC50 was over 20 µM in the test with EX-527, over 5.12 µM in the test with YM201636, over 4 µM with AZD6244 and 4.79 µM in the test with AS601245.

BICR10 (head and neck, adherent): the AUC in the test with EX-527 turned out to be 0.983; with YM201636, 0.981; in the test with AZD6244, 0.868; with AS601245, 0.846. Besides, the IC50 with EX-527 is over 20 µM; with YM201636 it was over 5.12 µM; with AZD6244, over 4 µM; with AS601245 it was 7.24 µM.

Turning to BICR22 (head and neck, adherent), the AUC with EX-527 worked out at 0.983; with YM201636, 0.983; with AZD6244, 0.555; with AS601245, 0.966. Further, the IC50 with EX-527 was over 20 µM; in the test with YM201636, over 5.12 µM; in the test with AZD6244, 0.362 µM; in the test with AS601245 it was over 8 µM.

Consider BICR78 (head and neck, adherent), for which the AUC was determined as 0.981 with EX-527, 0.969 in the test with YM201636, 0.618 with AZD6244 and 0.627 in the test with AS601245. Further, the IC50 was over 20 µM with EX-527, over 5.12 µM with YM201636, 0.559 µM with AZD6244 and 1.18 µM with AS601245.

With BPH-1 (prostate, adherent), the AUC with EX-527 was determined as 0.963; in the test with YM201636 it was 0.897; with AZD6244, 0.456; in the test with AS601245, 0.814. Moreover, the IC50 with EX-527 was over 20 µM; with YM201636, over 5.12 µM; with AZD6244 it was 0.187 µM; in the test with AS601245, 4.94 µM.

On to BT-20 (breast, adherent), for which the AUC in the test with EX-527 came out at 0.978; with YM201636, 0.929; with AZD6244 it was 0.947; with AS601245, 0.945. For the same cell line, the IC50 in the test with EX-527 was over 20 µM; with YM201636 it was over 5.12 µM; in the test with AZD6244, over 4 µM; with AS601245, over 8 µM.

Take BT-483 (breast, adherent): the AUC was found to be 0.967 in the test with EX-527, 0.876 in the test with YM201636, 0.962 with AZD6244 and 0.967 with AS601245. The IC50 is over 20 µM with EX-527, over 5.12 µM in the test with YM201636, over 4 µM with AZD6244 and over 8 µM with AS601245.
